In PubChem BioAssay AID504332 (National Center for Advancing Translational Sciences (NCATS), 2011):
Screen size: about 350,000 compounds; about 31,000 (8.9%) were called active. Inconclusive means that the source gave no clear call. Such entries were picked first, then a sample of the others. Calls follow the shape of the dose curve; as a rule, active = well fitted inhibition curve with a large enough effect; inconclusive = small, poorly fitted or top-dose-only effect; inactive = no such curve, though single readings can be large or run the other way. A potency beside an inconclusive call is a rough fit, not a confirmed value.

molecular target: Histone-lysine N-methyltransferase EHMT2 (Homo sapiens) (UniProt Q96KQ7); test: qHTS Assay for Inhibitors of Histone Lysine Methyltransferase G9a; conditions: G9a H3K9 monomethylation, AlphaScreen, 2 h; activity, negative = inhibition: at 59 µM (top of the series) unless noted; also: nearly all actives have a fitted effect of over 75% in size
Outline: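 G9a (20 nM) was preincubated 15 min with compound, then reacted 2 h at room temperature with 500 nM biotin-H3K9 peptide and 20 µM SAM. Monomethyl-H3K9 detected by AlphaScreen using anti-H3K9me1 antibody.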
% is scaled to controls: 0 for no effect and ±100 for the full control effect; potency is read from the fitted curve at half-maximal effect; tags tell the direction and shape of the fitted curve.

Sequence of UniProt Q96KQ7 (Q96KQ7 whole entry, looked up): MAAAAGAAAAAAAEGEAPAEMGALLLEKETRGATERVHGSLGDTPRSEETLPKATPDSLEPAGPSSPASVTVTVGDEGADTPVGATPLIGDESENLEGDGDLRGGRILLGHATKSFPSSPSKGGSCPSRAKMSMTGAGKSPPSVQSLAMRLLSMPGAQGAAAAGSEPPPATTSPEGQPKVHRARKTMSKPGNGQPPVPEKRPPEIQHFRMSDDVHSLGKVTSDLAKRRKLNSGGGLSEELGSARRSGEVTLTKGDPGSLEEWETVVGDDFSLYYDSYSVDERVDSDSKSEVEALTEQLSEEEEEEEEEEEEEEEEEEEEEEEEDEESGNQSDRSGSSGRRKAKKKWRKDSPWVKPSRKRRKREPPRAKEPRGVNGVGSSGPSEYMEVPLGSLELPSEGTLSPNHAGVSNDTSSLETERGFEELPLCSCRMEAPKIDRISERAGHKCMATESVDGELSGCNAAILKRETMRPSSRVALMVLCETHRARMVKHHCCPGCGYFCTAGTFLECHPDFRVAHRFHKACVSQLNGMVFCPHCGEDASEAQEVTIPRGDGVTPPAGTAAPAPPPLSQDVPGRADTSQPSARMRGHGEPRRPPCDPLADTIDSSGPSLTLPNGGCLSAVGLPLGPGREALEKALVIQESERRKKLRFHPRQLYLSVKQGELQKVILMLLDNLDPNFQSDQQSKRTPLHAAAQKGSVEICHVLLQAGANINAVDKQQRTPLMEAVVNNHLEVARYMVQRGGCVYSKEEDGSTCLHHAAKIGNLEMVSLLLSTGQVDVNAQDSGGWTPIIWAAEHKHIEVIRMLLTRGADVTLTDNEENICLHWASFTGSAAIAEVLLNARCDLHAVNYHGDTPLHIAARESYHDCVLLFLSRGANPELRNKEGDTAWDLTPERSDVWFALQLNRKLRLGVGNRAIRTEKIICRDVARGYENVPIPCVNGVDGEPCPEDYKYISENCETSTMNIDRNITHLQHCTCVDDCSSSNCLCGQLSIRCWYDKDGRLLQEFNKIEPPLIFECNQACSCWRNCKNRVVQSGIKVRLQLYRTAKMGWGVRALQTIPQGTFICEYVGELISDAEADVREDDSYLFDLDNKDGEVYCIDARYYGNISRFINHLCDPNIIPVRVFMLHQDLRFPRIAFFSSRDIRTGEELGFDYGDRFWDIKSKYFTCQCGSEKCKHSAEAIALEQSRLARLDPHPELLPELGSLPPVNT

Compound | Potency | activity, negative = inhibition
C(=N\c1nc2ccccc2n1CCN1CCCCC1)/c1cccs1 | inconclusive: 39.8 µM [inhibitor, partial curve] | 
O=C(N/N=C/c1ccncc1)c1cccc(N/N=C/c2ccncc2)c1 | inconclusive: 44.7 µM [inhibitor, partial curve] | 
O=C(NNC(=O)c1cc2cc(Br)ccc2oc1=O)c1ccc(O)cc1O |  | inactive: -3.02% [at 102 µM]
O=C(C1=C[C@H](C2CCCCC2)C[C@H](OCc2ccc(CO)cc2)O1)N1CCN(Cc2ccccc2)CC1 |  | inconclusive: -57.1% [inhibitor]
O=C(NC(N1CCOCC1)C(Cl)(Cl)Cl)c1cc([N+](=O)[O-])cc([N+](=O)[O-])c1 (centres undefined) | inconclusive: 89.1 µM [inhibitor, single point] | 
O=S(=O)(N/N=C/c1cccc(OC2CSC2)c1)c1ccccc1 | inconclusive: 17.8 µM [inhibitor, single point] | 
O=C(NN1CCOCC1)c1sc2cccc(F)c2c1Cl | active: 28.2 µM | 
CCOC(=O)C1CCN(S(=O)(=O)c2cc(Br)cc3c2N(C(=O)C2CC2)CC3)CC1 | inconclusive: 50.1 µM [inhibitor, partial curve] | 
COc1cccc(CNC(=O)CSc2ncc3c(n2)-c2cc(Cl)ccc2N(C)S3(=O)=O)c1 |  | inactive: -2.38%
COc1cc(C(=O)Nc2nc(N)n(-c3ccccc3)n2)cc(OC)c1OC |  | inactive: -1.56% [at 12.7 µM]
Cc1nn2cc(-c3ccc(Cl)cc3)nc2s1 |  | inactive: -15.9% [at 12.7 µM]
O=C(Cc1ccccc1)N1CCN=C1SCc1cccc([N+](=O)[O-])c1 | inconclusive: 28.2 µM [inhibitor, full curve] | 
COc1ccc(CCNC(=O)CSc2ccsc2[N+](=O)[O-])c(OC)c1 | inconclusive: 12.6 µM [inhibitor, partial curve, poor fit] | 
O=C(OCC(=O)c1ccccc1Br)c1ccccn1 | inconclusive: 0.708 µM [inhibitor, full curve, poor fit] | 
CCCCn1c(SCC(=O)NCc2ccco2)nc2ccc(N3CCOCC3)cc2c1=O |  | inactive: 3.65% [at 12.7 µM]
Cc1ccc(C)c(C(=O)COc2ccc(C)nc2[N+](=O)[O-])c1 | inconclusive: 89.1 µM [inhibitor, single point] | 
CC(C)CN1CCC2(CC1)CCN(C(=O)c1csnn1)CC2 |  | inactive: -0.197% [at 12.7 µM]
Oc1c(C(c2ccccn2)N2CCC(Cc3ccccc3)CC2)cc(Cl)c2cccnc12 (centres undefined) | active: 3.55 µM | 
CCOC(=O)c1ccc(N/N=C/c2cc(Br)cc([N+](=O)[O-])c2O)cc1 | active: 0.562 µM | 
COc1cc(SC)ccc1C(=O)N1CCN(c2ccccc2F)CC1 |  | inactive: -0.867% [at 102 µM]
C=CCn1c(C)cc(C(=O)COC(=O)/C=C/c2ccc(OC)cc2)c1C | inconclusive: 89.1 µM [inhibitor, partial curve, poor fit] | 
S=c1[nH]nc(-c2cccnc2)o1 | inconclusive: 39.8 µM [inhibitor, single point] | 
COc1ccc(C/C(C)=N/NC(=S)Nc2ccccc2F)cc1 | inconclusive: 7.94 µM [inhibitor, single point] | 

Compound | Potency | activity, negative = inhibition
Cc1ccc(C)n1-c1c(C(=O)NCC(C)c2ccccc2)sc2ncccc12 (centres undefined) |  | inactive: -27.3%
COc1ccccc1C(=O)Nc1ccon1 | inconclusive: 28.2 µM [inhibitor, single point] | 
CCNC(=S)N(CCc1c(C)[nH]c2ccc(F)cc12)Cc1cccnc1 | inconclusive: 50.1 µM [inhibitor, partial curve] | 
CC(C)NC(=S)NNc1nc2ccccc2s1 | active: 2.24 µM | 
Cn1cnc([N+](=O)[O-])c1Sc1ncccc1N | active: 3.55 µM | 
COc1ccc(C(=O)N(Cc2ccc(N(C)C)cc2)Cc2ccco2)cc1Cl | inconclusive: 15.8 µM [inhibitor, partial curve, poor fit] | 
O=C(NC(=S)NCCc1ccccn1)c1ccco1 |  | inactive: 1.31% [at 102 µM]
Cc1cc(-c2ccc(C)c(S(=O)(=O)Nc3ccccc3C(F)(F)F)c2)on1 |  | inactive: -25.4%
CC(C)N(Cc1ccccc1)C(=O)c1ccc2c(c1)OCO2 | inconclusive: 89.1 µM [inhibitor, single point] | 
Cc1ccccc1-c1cncnc1NCc1ccccc1 |  | inactive: 7.78% [at 0.501 µM]
CCOc1cccc(/C=N/N2C(=O)CSC2=S)c1O | inconclusive: 7.94 µM [inhibitor, full curve, poor fit] | 
COCCNCCOCCOc1ccc(Cl)c(C)c1 | active: 2.82 µM | 
COc1ccc(C(=O)C2CCCN(Cc3c[nH]c4ccccc34)C2)c(OC)c1 (centres undefined) | inconclusive: 7.94 µM [inhibitor, partial curve, poor fit] | 
CS(=O)(=O)c1ccc(Cl)c(C(=O)Nc2ccc3nc(N4CCOCC4)sc3c2)c1 | inconclusive: 35.5 µM [inhibitor, single point] | 
CCCCN(C)CCNC(=O)C1CCCN(S(=O)(=O)c2ccc3c(c2)oc(=O)n3C)C1 (centres undefined) |  | inactive: -7.34%
Cc1ccc(C(=O)Nc2ccc(S(=O)(=O)Nc3cnc4ccccc4n3)cc2)cc1 | active: 50.1 µM | 
O=C(CSc1nc2sc3c(c2c(=O)n1-c1ccccc1)CCCC3)N/N=C/c1ccc(C(=O)O)cc1 |  | inactive: -10.9% [at 102 µM]
O=C(Oc1cccc(C(=S)N2CCOCC2)c1)c1ccc([N+](=O)[O-])cc1[N+](=O)[O-] | active: 25.1 µM | 
CC1Cc2ccccc2N1C(=O)COC(=O)CNC(=O)c1ccc(Br)o1 (centres undefined) | inconclusive: 1.12 µM [inhibitor, partial curve, poor fit] | 
CN1C(=O)NC(c2ccccc2)C2=C1CN(Cc1ccco1)C2=O (centres undefined) | inconclusive: 39.8 µM [inhibitor, single point] | 
O=C(NCCc1csc(-c2ccc(C(F)(F)F)cc2)n1)C(=O)Nc1cc(F)ccc1F |  | inactive: -0.319%
COc1ccc(NC(=O)CCCn2c(=O)c3cccn3c3ccccc32)c(OC)c1 |  | inactive: -0.992%
C=C(C)[C@@H]1CC=C(CN2CCN(Cc3ccccc3)CC2)CC1 | active: 50.1 µM | 

Compound | Potency | activity, negative = inhibition
CCc1ccc(-n2nc3ccc(NC(=O)c4ccc5c(c4)OCO5)cc3n2)cc1 | inconclusive: 89.1 µM [inhibitor, single point] | 
COc1ccc(OC)c(C(=O)NC(CC(N)=O)c2ccc(NC(C)C)c([N+](=O)[O-])c2)c1 (centres undefined) | inconclusive: 79.4 µM [inhibitor, single point] | 
COc1cc(CNn2c(C)n[nH]c2=S)cc(Cl)c1OCc1ccccc1 | inconclusive: 11.2 µM [inhibitor, partial curve, poor fit] | 
O=C1C(c2cccc(Br)c2)N(CCc2ccccc2)C(=O)CN1C1CCCCC1 (centres undefined) |  | inactive: 9.92%
COc1ccc(N2CCN(C(=O)CSc3nc4[nH]ncc4c(=O)n3-c3ccc(Br)cc3)CC2)cc1 |  | inactive: 83.5% [at 102 µM]
CC1(C)CC(=O)C2=C(C1)OC(N)=C(C#N)C2c1ccccc1[N+](=O)[O-] (centres undefined) | inconclusive: 56.2 µM [inhibitor, partial curve, poor fit] | 
Cc1ccc(NC(=O)c2c3c(nc4ccccc24)CCC3)cc1 | inconclusive: 100 µM [inhibitor, single point] | 
CN(C)C(=S)NC(=O)C12CC3(C)CC(C)(CC(C)(C3)C1)C2 |  | inactive: 22.4% [at 102 µM]
CSc1cccc(CN2CCN(CCc3ccccc3)C(CCO)C2)c1 (centres undefined) | inconclusive: 31.6 µM [inhibitor, partial curve, poor fit] | 
Cc1ccc(NC(=O)NC(=O)CSc2nnc(-c3ccc(Cl)cc3Cl)n2N)c(C)c1 |  | inactive: -46.5%
CCOC(=O)N1CCN(C2CC(=O)N(c3ccc(Cl)c(Cl)c3)C2=O)CC1 (centres undefined) | inconclusive: 31.6 µM [inhibitor, single point] | 
Cc1cc(C)cc(OCc2nnc(SCC(=O)N3CCCCC3)o2)c1 | inconclusive: 89.1 µM [inhibitor, single point] | 
OC(CN1CCOCC1)Cn1c2c(c3ccccc31)CCCC2 (centres undefined) | inconclusive: 89.1 µM [inhibitor, single point] | 
OC(CN1CCN(c2ccccn2)CC1)Cn1c2ccccc2c2ccccc21 (centres undefined) |  | inconclusive: -63.9% [inhibitor]
CCOC(=O)C1=C(O)/C(=C/c2ccc(OCC(=O)Nc3ccc(C)cc3)cc2)N=C1C | inconclusive: 7.94 µM [inhibitor, partial curve, poor fit] | 
Cc1ccc(NC(=O)c2sc3nc(-c4cccs4)ccc3c2N)cc1F | inconclusive: 2.51 µM [inhibitor, full curve] | 
CN(C)S(=O)(=O)c1cccc(NC(=O)COC(=O)CCc2nc3ccccc3s2)c1 | inconclusive: 2 µM [inhibitor, partial curve, poor fit] | 
O=C(NC12CC3CC(CC(C3)C1)C2)c1cncc(O)c1 |  | inactive: 7.5% [at 12.7 µM]
CCOCCCNS(=O)(=O)c1ccc(OC)c(Cl)c1Cl | inconclusive: 1.26 µM [inhibitor, partial curve, poor fit] | 
COc1ccc(C(CNC(=O)C2COc3ccccc3O2)N2CCCC2)cc1 (centres undefined) | inconclusive: 1.58 µM [inhibitor, full curve, poor fit] | 
CCOC(=O)C1(C)NC(c2ccco2)C2C(=O)N(C)C(=O)C21 (centres undefined) |  | inconclusive: -75.3% [inhibitor] [at 0.501 µM]
CCN1CCN(C(=S)NCCc2ccccc2)CC1 | inconclusive: 10 µM [inhibitor, partial curve, poor fit] | 
Cc1ccc(S(=O)(=O)N2CCCN(C(=O)c3cc4ccccc4[nH]3)CC2)cc1 | inconclusive: 89.1 µM [inhibitor, partial curve, poor fit] | 
